This is one part of the list. Many values rest on one well or one pass, so single values are uncertain.
Columns and labels:
Assay in all cases: cell count relative to DMSO control; melanoma cells; higher = more viable cells
Settings in all cases: library dose: standard library concentration; 72 h
SkMel28 = tested on: SkMel28
SkMel2 = tested on: SkMel2
SkMel30 = tested on: SkMel30
SkMel5 = tested on: SkMel5
UACC257 = tested on: UACC257
UACC62 = tested on: UACC62
WM115 = tested on: WM115
WM1716 = tested on: WM1716
WM1745 = tested on: WM1745
WM3526 = tested on: WM3526
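Further: cells treated in 1,536-well plates, then fixed and DAPI-stained, with nuclei counted from automated high-throughput microscope images.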

| SMILES | cell count (SkMel28) [%] | cell count (SkMel2) [%] | cell count (SkMel30) [%] | cell count (SkMel5) [%] | cell count (UACC257) [%] | cell count (UACC62) [%] | cell count (WM115) [%] | cell count (WM1716) [%] | cell count (WM1745) [%] | cell count (WM3526) [%] |
| --- | --- | --- | --- | --- | --- | --- | --- | --- | --- | --- |
| Clc1ccc(Nc2nnc(Cc3ccncc3)c3ccccc23)cc1 [vatalanib] + O=C(Nc1cccc(Cl)c1)Nc1ncc(CCNc2ncnc3ccsc23)s1 [SNS314] (first compound 10 µM, partner dose 0.004 µM) | 46.5 | 69.3 | 77.2 | 67.5 | 59.7 | 100 | 69.9 | 89.7 | 48.5 | 71.4 |
| C#Cc1cccc(Nc2ncnc3cc(OCCOC)c(OCCOC)cc23)c1 [erlotinib] + Oc1nc(-c2ccc(C(F)(F)F)cc2)nc2c1CSCC2 [XAV939] (first compound 4 µM, partner dose 10 µM) | 64.5 | 90.9 | 78.9 | 67.1 | 88.3 | 85.1 | 71.7 | 75.6 | 48.7 | 72.1 |
| O=C(CCCCCCC(=O)Nc1ccccc1)NO [vorinostat] + CCc1ccc(CCOc2ccc(CC3SC(=O)NC3=O)cc2)nc1 [pioglitazone] (first compound 0.4 µM, partner dose 10 µM) | 71.1 | 76.5 | 95.1 | 60.6 | 54.2 | 73.7 | 77.5 | 98.2 | 77.3 | 74.6 |
| O=C(CCCCCCC(=O)Nc1ccccc1)NO [vorinostat] + O=C(O)c1ccc(-c2c[nH]c3ncc(-c4ccccc4)cc23)cc1C1CCCC1 [GSK650394] (first compound 0.4 µM, partner dose 0.8 µM) | 50.2 | 55.6 | 80.3 | 65.3 | 53.3 | 63.2 | 88.2 | 73.4 | 114 | 66.7 |
| Cn1c(Nc2ccc(C(F)(F)F)cc2)nc2cc(Oc3ccnc(-c4ncc(C(F)(F)F)[nH]4)c3)ccc21 + Cn1cncc1[C@@](N)(c1ccc(Cl)cc1)c1ccc2c(c1)c(-c1cccc(Cl)c1)cc(=O)n2C [tipifarnib] (first compound 0.4 µM, partner dose 0.05 µM) | 32.9 | 36.9 | 56.4 | 30.8 | 80.2 | 44.6 | 35.3 | 70.1 | 67.4 | 41.6 |
| O=C(CCCCCCC(=O)Nc1ccccc1)NO [vorinostat] + COc1cc2ncnc(Nc3ccc(Oc4ccccc4)cc3)c2cc1OC [SrcI1] (first compound 0.4 µM, partner dose 10 µM) | 55 | 74.2 | 87.7 | 55.5 | 80.5 | 56.6 | 69.5 | 79.2 | 78.7 | 62.2 |
| COCC[n+]1c2c(n(Cc3cnccn3)c1C)C(=O)c1ccccc1C2=O + CCCCCCCCCCCC1=C(O)C(=O)C=C(O)C1=O [Embelin] (first compound 0.002 µM, partner dose 6 µM) | 59.9 | 29.7 | 77.4 | 74.9 | 17.6 | 99.3 | 67.5 | 70.5 | 67.5 | 51.9 |
| Clc1ccc(Nc2nnc(Cc3ccncc3)c3ccccc23)cc1 [vatalanib] + CN(C)S(=O)(=O)c1ccc2c(c1)/C(=C/c1cc3c([nH]1)CCCC3)C(=O)N2 [SU6656] (first compound 10 µM, partner dose 2 µM) | 43.8 | 70 | 84.2 | 32.9 | 55.8 | 45.9 | 45 | 49.2 | 17.7 | 51 |
| O=C(CCCCCCC(=O)Nc1ccccc1)NO [vorinostat] + CN(NC(=O)CC(=O)NN(C)C(=S)c1ccccc1)C(=S)c1ccccc1 [STA4783] (first compound 0.4 µM, partner dose 0.03 µM) | 5.26 | 40.9 | 101 | 55.7 | 78.3 | 42.9 | 22.7 | 72.5 | 34.1 | 84.2 |
| Clc1ccc(Nc2nnc(Cc3ccncc3)c3ccccc23)cc1 [vatalanib] + O=C(CCCCCCC(=O)Nc1ccccc1)NO [vorinostat] (first compound 10 µM, partner dose 0.4 µM) | 44.7 | 48.1 | 73.5 | 53.2 | 76.8 | 67.7 | 81.1 | 78 | 26.4 | 52.5 |
| O=C(CCCCCCC(=O)Nc1ccccc1)NO [vorinostat] + CC(C)(C)c1cnc(CSc2cnc(NC(=O)C3CCNCC3)s2)o1 [SNS-032] (first compound 0.4 µM, partner dose 0.05 µM) | 40.9 | 75.4 | 83.3 | 63.1 | 64.9 | 63.5 | 79.5 | 90.8 | 119 | 72.9 |
| O=C(CCCCCCC(=O)Nc1ccccc1)NO [vorinostat] + Cc1ccc(NC(=O)c2cccc(N(C)C)c2)cc1NC(=O)c1ccc(O)cc1 [ZM336372] (first compound 0.4 µM, partner dose 10 µM) | 66.1 | 88.4 | 74.9 | 83 | 67.5 | 73.3 | 66.3 | 100 | 66 | 89.5 |
| Clc1ccc(Nc2nnc(Cc3ccncc3)c3ccccc23)cc1 [vatalanib] + CO[C@@H]1[C@H](N(C)C(=O)c2ccccc2)C[C@H]2O[C@]1(C)n1c3ccccc3c3c4c(c5c6ccccc6n2c5c31)C(=O)NC4 [Midostaurin] (first compound 10 µM, partner dose 0.4 µM) | 33.9 | 30.4 | 66.6 | 38.1 | 55.9 | 56.2 | 32.2 | 29.7 | 18.6 | 48.8 |
| COCC[n+]1c2c(n(Cc3cnccn3)c1C)C(=O)c1ccccc1C2=O + C=CCn1c(=O)c2cnc(Nc3ccc(N4CCN(C)CC4)cc3)nc2n1-c1cccc(C(C)(C)O)n1 [MK1775] (first compound 0.002 µM, partner dose 0.1 µM) | 30.7 | 44.5 | 52.9 | 31.7 | 22.1 | 61 | 55.2 | 62.3 | 72.3 | 37.8 |
| C#Cc1cccc(Nc2ncnc3cc(OCCOC)c(OCCOC)cc23)c1 [erlotinib] + OCCn1cc(-c2cnc3nnn(Cc4ccc5ncccc5c4)c3n2)cn1 [PF04217903] (first compound 4 µM, partner dose 5 µM) | 60.9 | 75.2 | 78.9 | 62.1 | 89.4 | 61.9 | 82.4 | 85.3 | 50.3 | 64.4 |
| COCC[n+]1c2c(n(Cc3cnccn3)c1C)C(=O)c1ccccc1C2=O + O=C(Nc1ccccc1)c1cc([N+](=O)[O-])ccc1Cl [GW9662] (first compound 0.002 µM, partner dose 10 µM) | 31.6 | 33.6 | 44.7 | 41.6 | 21.6 | 68.3 | 42.6 | 53.2 | 68.6 | 34.8 |
| Nc1cccc2c1CN(C1CCC(=O)NC1=O)C2=O (stereo not given) [lenalidomide] + O=C(O)C(=O)Nc1sc2c(c1C(=O)O)CCNC2 [TCS401] (first compound 5 µM, partner dose 8.33333 µM) | 105 | 91.1 | 106 | 100 | 81.1 | 106 | 89.7 | 93.1 | 74.5 | 81.6 |
| COCC[n+]1c2c(n(Cc3cnccn3)c1C)C(=O)c1ccccc1C2=O + COc1cc2ncnc(Nc3ccc(Oc4ccccc4)cc3)c2cc1OC [SrcI1] (first compound 0.002 µM, partner dose 10 µM) | 22.6 | 38.4 | 77.3 | 25.8 | 19.4 | 70.7 | 34.7 | 44.4 | 66.2 | 34.7 |
| C#Cc1cccc(Nc2ncnc3cc(OCCOC)c(OCCOC)cc23)c1 [erlotinib] + COc1cc2c(Oc3ccc4[nH]c(C)cc4c3F)ncnc2cc1OCCCN1CCCC1 [cediranib] (first compound 4 µM, partner dose 2 µM) | 94.7 | 98.5 | 77.4 | 85.9 | 87.6 | 60 | 66.9 | 79 | 60.1 | 69.2 |
| COCC[n+]1c2c(n(Cc3cnccn3)c1C)C(=O)c1ccccc1C2=O + NCC(=O)Nc1ccc(-n2nc(C(F)(F)F)cc2-c2ccc3c(ccc4ccccc43)c2)cc1 [OSU03012] (first compound 0.002 µM, partner dose 5 µM) | 17.3 | 22.3 | 45.5 | 34.2 | 41.9 | 53.9 | 55.5 | 64.3 | 69.6 | 28.9 |
| OCc1c[nH]c2ccccc12 [Indole-3-carbinol] + CN(C)S(=O)(=O)c1ccc2c(c1)/C(=C/c1cc3c([nH]1)CCCC3)C(=O)N2 [SU6656] (first compound 4 µM, partner dose 2 µM) | 68.6 | 95.6 | 70.5 | 70.9 | 79.7 | 60.1 | 83.1 | 72.4 | 69.1 | 83.6 |
| Nc1cccc2c1CN(C1CCC(=O)NC1=O)C2=O (stereo not given) [lenalidomide] + Cc1ccc(NC(=O)c2cccc(N(C)C)c2)cc1NC(=O)c1ccc(O)cc1 [ZM336372] (first compound 5 µM, partner dose 10 µM) | 132 | 101 | 103 | 96.9 | 88.6 | 92.3 | 101 | 115 | 76 | 90.8 |
| OCc1c[nH]c2ccccc12 [Indole-3-carbinol] + NC(=O)Nc1cc(-c2cccc(F)c2)sc1C(=O)N[C@H]1CCCNC1 [AZD7762] (first compound 4 µM, partner dose 0.1 µM) | 52.4 | 91.5 | 104 | 64.5 | 101 | 72 | 74 | 86.9 | 72.4 | 65.9 |
| OCc1c[nH]c2ccccc12 [Indole-3-carbinol] + O=C(O)c1ccc(-c2c[nH]c3ncc(-c4ccccc4)cc23)cc1C1CCCC1 [GSK650394] (first compound 4 µM, partner dose 0.8 µM) | 75.8 | 68.9 | 85.7 | 68.3 | 70.1 | 83.2 | 58.9 | 79.2 | 62.1 | 102 |
